Measurements as given in the supplement of paper PMC3334620.
Whole data set: some 33,000 sequences, median “E-score (-0.5 to 0.5)” near -0.054, cut for the highest 2% near 0.39. This is one part of the list.

Target: Ylr278c (UniProt Q05854)
Assay: PBM E-score (8-mer binding enrichment) (E-score (-0.5 to 0.5)); higher = stronger / more preferred TF binding; most listed sequences are background and not binding sites
Conditions: protein concentration: 200 nM; construct: GST-DNA-binding domain
In short: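 Using PURExpress in vitro transcription/translation, GST-tagged yeast transcription factors were made in full-length or DNA-binding-domain form. These were applied at about 100-200 nM to double-stranded universal all-10-mer Agilent arrays, and bound protein was detected with fluorescent anti-GST. Scans were normalised with masliner before the Universal PBM Analysis Suite assigned E-scores to ungapped eight-base words pooled with their reverse complements.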

In order of rising “PBM E-score” value:
1. GTCCAGGA  -0.32
2. AAGGGCAG  -0.309
3. CTAGCTAG  -0.281
4. AGAACTCT  -0.277
5. GTGGTCAA  -0.275
6. ATCGTGGC  -0.257
7. CACAGTCA  -0.256
8. GCCTGGAA  -0.256
9. ATATAGCA  -0.253
10. AGCTCTGA  -0.252
11. CAACACTG  -0.251
12. ATGGTTAC  -0.246
13. ACAGGGGG  -0.243
14. AGGTCGAA  -0.234
15. GTCGCCAC  -0.23
16. ATGATGCA  -0.223
17. AAAATGTT  -0.221
18. AGGCTGAA  -0.219
19. AATGATCT  -0.216
20. ACTGATAT  -0.215
21. ATGTATCA  -0.215
22. TGTACTAA  -0.214
23. AACCAGGT  -0.21
24. CCACACCA  -0.21
25. AGCATGAG  -0.208
26. CTCTGGGA  -0.206
27. CGTTCAGA  -0.205
28. CAGGCATA  -0.199
29. GTAAGCGA  -0.182
30. GAATGACA  -0.176
31. AGACGACC  -0.174
32. CGTCAAAG  -0.172
33. ACCTGAGG  -0.171
34. TATAACGA  -0.17
35. CACACTAA  -0.17
36. AAGAATGT  -0.168
37. ACATTATA  -0.165
38. ATCGTTGG  -0.161
39. GTTACCCA  -0.158
40. ATGGATAC  -0.157
41. AGGTGGTC  -0.155
42. CGTGGCAA  -0.154
43. TCCCACCA  -0.152
44. AACACGAG  -0.151
45. AAGCATGG  -0.147
46. CATACACG  -0.146
47. ATGGGGTG  -0.146
48. CCTTCGTA  -0.146
49. GCGCCAGC  -0.145
50. CCCTTTCA  -0.143
51. AGCATACC  -0.141
52. AAGTATCA  -0.141
53. TGCAAAAA  -0.139
54. CAGGCATC  -0.139
55. ACGCCAAA  -0.139
56. GTGGCCTA  -0.135
57. TCATTTAA  -0.135
58. GTGAGCGA  -0.134
59. ATGAGGAG  -0.132
60. AATTCTCA  -0.13
61. GCTGGACC  -0.129
62. CTTAATGA  -0.128
63. ATGAATCA  -0.127
64. GCTACACC  -0.12
65. ACTTTCGC  -0.119
66. AAAGAAAG  -0.112
67. AGTACAAA  -0.111
68. GTCGTACA  -0.11
69. GCGATAGA  -0.109
70. CCCACCTA  -0.105
71. CAACCAGC  -0.102
72. GACCGTGC  -0.102
73. ATTACAAG  -0.101
74. AATAGCAT  -0.0992
75. AGGACGCC  -0.0974
76. AAACTGCC  -0.0969
77. TAAGCTAA  -0.0954
78. GATAGCAC  -0.0953
79. AGGTGGAG  -0.0939
80. CAAAGCTA  -0.093
81. GCCTTATA  -0.0924
82. CAGCGAAA  -0.0902
83. AGTGGGCA  -0.0901
84. CGCTACCC  -0.0897
85. CAGGTAAG  -0.0893
86. CATTCATC  -0.0892
87. AGTACGGG  -0.0881
88. CCATAAAC  -0.0862
89. ATATGCAC  -0.0858
90. GGTTACGA  -0.0858
91. AACACTAC  -0.085
92. CGCCACCA  -0.0848
93. AGCTAACC  -0.0803
94. TTCACCAA  -0.0791
95. TCTGGTAA  -0.0791
96. AGACGCGC  -0.0782
97. ACAGTACC  -0.0761
98. CTGCAGGA  -0.0759
99. CCAAAAGC  -0.0745
100. GCGTAACC  -0.0718
101. GACAAGTC  -0.071
102. AGGAGCGC  -0.0703
103. AAATGGAT  -0.0669
104. ACAGTAAA  -0.0669
105. AGTATCAC  -0.0655
106. ATTAAGGC  -0.0652
107. CGATAGTC  -0.0611
108. AGTCCACC  -0.0582
109. AGGCGGTA  -0.0577
110. ATCGAACC  -0.0557
111. AGGATTAT  -0.0518
112. GAGTAATC  -0.0516
113. CACTATGC  -0.0508
114. AGCGACCT  -0.0488
115. GGGTGGCA  -0.0476
116. GACTGCTC  -0.0476
117. CACATCTG  -0.0441
118. ACGTACCC  -0.044
119. ACGAGTGC  -0.0431
120. CACTTTAC  -0.0418
121. ATAACGGG  -0.0411
122. CATTTACC  -0.0404
123. AGAAGCCA  -0.0384
124. CCGCAGAG  -0.0375
125. AATCGCAA  -0.0343
126. CGAAAACG  -0.0308
127. CTGTTTAA  -0.029
128. GGATTGGA  -0.0255
129. ATTGCATA  -0.025
130. CTCTTCCA  -0.0203
131. CAAACCAA  -0.0195
132. AATATGTG  -0.0175
133. GGCTGCCC  -0.0143
134. ACGCGAAC  -0.00887
135. AAGTAAAC  -0.00864
136. GAAATACA  -0.00863
137. GAGTGACC  -0.0085
138. GGCTGATA  -0.00703
139. AGCCGTGC  -0.00625
140. CGTCTAAC  -0.00517
141. AATAGCGT  -0.00358
142. GGCAATTA  -0.00272
143. GACGATAA  -0.00063
144. AGAATCGC  0.00255
145. AAGAAGAG  0.00358
146. GAGAGGCA  0.00531
147. ATCGATGC  0.00684
148. CGACCCGA  0.0126
149. AAATTTAT  0.0131
150. GAAGTTCA  0.0136
151. AGAATCAG  0.0154
152. CTAATCAA  0.0158
153. AAGATTAC  0.0222
154. CAGAATCC  0.0232
155. GAAACAAA  0.0247
156. CCGTTGAA  0.0314
157. GGTCCCAC  0.0333
158. GGATTGAC  0.0351
159. ACTAAACC  0.0358
160. TTGATAAA  0.0403
161. ACATGTAG  0.0459
162. GCTAGTCC  0.0489
163. CGAGTATC  0.0505
164. AGGGCCGC  0.0521
165. ACAACTCG  0.0543
166. CGACTTAC  0.0558
167. ACTTAATA  0.0617
168. CCTTATAA  0.0645
169. GTGTGGGA  0.0678
170. CGATGCGA  0.0702
171. AAACAAAG  0.0712
172. CATATAGC  0.0763
173. AGGCACCG  0.0765
174. GCTAATAC  0.082
175. CGAGATAC  0.0945
176. CGTTTCAG  0.0963
177. ATCGGCTA  0.101
178. GAGATTTA  0.106
179. AGTGCTCC  0.115
180. CGAACCAC  0.119
181. AAGTACGA  0.122
182. GAATTACC  0.127
183. ACACAAAT  0.127
184. CGGATGGA  0.135
185. CCACACGG  0.144
186. GTAAATCA  0.148
187. CCCGTCAC  0.157
188. ACGAGCGG  0.158
189. CGAGCTCA  0.164
190. AACCGCGC  0.165
191. CCAGGCGG  0.17
192. CCGTATCA  0.171
193. AACCGATT  0.174
194. GGGGATTA  0.175
195. CCGACTAG  0.19
196. ACACGCGG  0.192
197. CGGCACAG  0.194
198. GTACCGAC  0.197
199. GAAGCCGC  0.219
200. GCATTTCC  0.227
201. AATCACGG  0.231
202. CTTTCGGC  0.239
203. ATTTCTCG  0.242
204. GATCTTCC  0.245
205. CGATAACA  0.245
206. GTACGGAC  0.249
207. CACGGGGA  0.255
208. AGCGGCAT  0.257
209. CCGCGAAA  0.296
210. CCGGTTGA  0.303
211. CGGCGATA  0.335
212. TCAGCGGA  0.347
213. ATACCGGC  0.354
214. GGGACGGA  0.369
215. ATGCGGAA  0.383
216. CGGAACAG  0.388
217. TCCGAGAA  0.421
218. GATCGGAC  0.434
219. ATCCCGGA  0.44
